Results published in PubChem BioAssay AID1963576 (National Center for Advancing Translational Sciences (NCATS), 2024).
Out of some 46,000 compounds screened, about 60 (0.1%) were called active. Inconclusive results (about 3%) are left out. The call rests on the fitted dose curve; in most records, active means well fitted inhibition curve with a large enough effect; inconclusive means small, poorly fitted or top-dose-only effect; inactive means no such curve, though single readings can be large or run the other way. This is one part of the list. Starred links: 1 amine or outer side, 2 acyl side, 3 side chain; linkers in the order of their positions; H or OH if unused. Positions of bridges follow the written chain, without caps; N, C: chain ends. Non-standard residues stand in square brackets, D forms with d. Residues, ends and D or L forms follow the SMILES beside them. Chains are numbered I, II in the order given. Actinocin(9to1) = Cc1c2oc3c(C)ccc(C(=O)[*:1])c3nc-2c(C(=O)[*:2])c(N)c1=O; NMeV = CN[CH](C(=O)O)C(C)C; Sar = CNCC(=O)O

Assay: Primary qHTS assay for Inhibitors of ovarian cancer metastasis using an organotypic tumor microenvironment (TME) model. Further: nearly all actives have a fitted effect of over 65% in size.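 On activity change, negative = inhibition: plate controls were DMSO wells for no effect and tomatine positive control wells for full effect.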
Conditions: SKOV3ip1-GFP adhesion/invasion on 3D omental model, fluorescence; series mostly up to 45.8 µM; activity change, negative = inhibition: at the top concentration
Outline: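 Adhesion/invasion was scored as fixed GFP-labeled SKOV3ip1 cell counts (488/509 nm), normalized to DMSO and tomatine controls. Cancer cells in serum-free medium, with four compound doses (0.36-46 umol/L), sat 2 hr at RT then 16 hr at 37 C on a 48 hr fibroblast/mesothelial/ECM culture.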

Activity change, negative = inhibition, inactive:
COc1ccc(-c2nsc(NC(=O)c3oc4cc(C)c(C)cc4c3C)n2)cc1 -3.48%
Cc1ccc(NC(=O)c2c(C)nc3sc(C(=O)Nc4ccc(F)cc4)c(N)c3c2-c2ccccc2Cl)c(C)c1 -15.8%
COc1ccc(Cl)cc1NC(=O)c1ccc2c(c1)CCCN2S(C)(=O)=O 0.898%
CCOc1ccc(CN2CCN(c3ncnc4sc5c(c34)CC(C)CC5)CC2)cc1 (stereo not given) -1.39%
CC(=O)c1ccc(NC(=O)Cn2cc3c(n2)CCCC3)cc1 5.33%
O=C(O)c1cc(-c2ccc(C(F)(F)F)cc2)nc2n[nH]c(-c3ccccc3)c12 -11.8%
O=C(NCCSc1c(-c2ccccc2)[nH]c2ccccc12)c1ccc(S(=O)(=O)N2CCOCC2)cc1 -22.2%
Cc1ccc(CNC(=O)C2CCN(S(=O)(=O)c3ccc4c(c3)CCCN4C(=O)C3CCC3)CC2)cc1 4.83%
CCOc1ccc2c(c1)c(=O)c(S(=O)(=O)c1ccccc1)cn2CC(=O)Nc1ccccc1OC -8.56%
CCCCNC(=O)c1cnn2c(C)c(Cc3c(F)cccc3Cl)c(C)nc12 -8.74%
Cc1ccccc1NC(=O)CN1C(=O)C(C)(C)c2ccccc21 11.9%
Cc1c2oc3c(C)ccc(C(=O)NC4C(=O)NC(C(C)C)C(=O)N5CCCC5C(=O)N(C)CC(=O)N(C)C(C(C)C)C(=O)OC4C)c3nc-2c(C(=O)NC2C(=O)NC(C(C)C)C(=O)N3CCCC3C(=O)N(C)CC(=O)N(C)C(C(C)C)C(=O)OC2C)c(N)c1=O (stereo not given) (I: TVP[Sar][NMeV] / II: TVP[Sar][NMeV]; ester I:1-I:C, II:1-II:C; linker I:N-II:N via Actinocin(9to1); configuration not given here) -13.2%
COc1ccc(NC(=O)CN2C(=O)CSc3ccc(S(=O)(=O)N4CCCC4)cc32)cc1OC -2.45%
O=C1c2c(O)cccc2[C@@H]([C@@H]2O[C@H](CO)[C@@H](O)[C@H](O)[C@H]2O)c2cc(CO)cc(O)c21 -12.4%
COc1ccc(Cc2nccc3cc(OC)c(OC)cc23)cc1OC 0.992%
CCCC(=O)NCC1(N(C)C)CCCCC1 -13.5%
Cc1ccc(Cl)cc1NC(=O)c1cnc(N2CCCCC2)c2ccccc12 -5.36%
Cc1cccc(C(=O)Nc2c(-c3ccccc3)nc3cc(C)ccn23)c1 -1.23%
CC(C)OCCCn1c(=O)c2ccccc2n2c(-c3ccc(F)cc3)nnc12 -7.31%
Cn1c(=NC(=O)c2ccc(S(=O)(=O)N3CCCc4ccccc43)cc2)sc2cc(F)ccc21 -1.28%
COc1ccc(S(=O)(=O)N(CC(=O)Nc2ccccc2Br)Cc2ccccc2)cc1 1.39%
COc1ccccc1NC(=O)C(=O)NCC(c1ccc2c(c1)OCO2)N1CCN(C)CC1 (stereo not given) -0.715%
CCOc1cc2sc(N3CCC(C(=O)Nc4ccc(C)cc4C)CC3)nc2cc1Br -4.79%
COc1ccc(NC(=O)C(=O)NCCc2csc(-c3ccc(Cl)cc3)n2)cc1OC -1.07%
CN(C)c1ccc(C(CNC(=O)c2ccccc2)N2CCc3ccccc32)cc1 (stereo not given) 3.03%
CCc1ccc(CN(Cc2ccco2)c2cnc(S(C)(=O)=O)nc2C(=O)Nc2cccc(C)c2)cc1 -3.03%
CCOC(=O)COc1ccc([N+](=O)[O-])cc1-c1ccnc2cc(-c3ccc(Cl)cc3)nn12 33.7%
Cc1ccc(SCCNC(=O)CN(c2ccccc2)S(=O)(=O)N(C)C)cc1 -1.68%
COCCCNC(=O)c1oc2c(c1C)-c1nn(Cc3ccccc3Cl)cc1CC2 -6.81%
CNC(=O)C1CCC(Cn2c(=O)c3sccc3n(CC(=O)NCc3ccccc3)c2=O)CC1 (stereo not given) 19.4%
Cc1ccccc1C(=O)Nc1sc2c(c1C(=O)NCc1ccco1)CCC(C(C)(C)C)C2 (stereo not given) 2.2%

outcome, inactive:
Cc1cccc(CNC(=O)c2cnc3sc(N4CCCCCC4)nn3c2=O)c1
CC(=O)c1ccc(NC(=O)Cn2c(=O)n(Cc3ccco3)c(=O)c3sc4ccccc4c32)cc1
COc1cccc(OC)c1C(=O)Nc1ccc(S(=O)(=O)Nc2nccc(C)n2)cc1
Cc1ccc(-n2ncc(C(=O)NCCCN3CCCCC3)c2C2CCN(C(=O)OC(C)(C)C)CC2)cc1
COc1ccccc1C(=O)Nc1nnc(S(=O)(=O)N(C)c2ccc(Cl)cc2)s1
CCc1ccc(S(=O)(=O)c2cn(CC)c3cc(N4CCOCC4)c(F)cc3c2=O)cc1
Cc1nc(-c2ccccc2)sc1CCNS(=O)(=O)c1ccccc1
COc1cccc(NC(=O)c2cc3c(=O)n(C)c4ccccc4c3n2C)c1
CCOc1ccc(S(=O)(=O)N(CC(=O)NCCc2ccc(OC)c(OC)c2)c2ccccc2)cc1
COc1ccc(OC)c(CCNC(=O)c2c(C)oc3ncn(C)c(=O)c23)c1
Cc1cccc(C)c1NC(=O)Cn1c(=O)n(CCC(=O)NCc2ccccc2Cl)c(=O)c2sccc21
N#Cc1ccc(C(=O)Nc2cc3nn(-c4ccccc4)nc3cc2Cl)c(F)c1
COc1ccc(-c2nc3scc(CCNS(=O)(=O)c4ccc(C)cc4)n3n2)cc1
COC(=O)c1ccc(NC(=O)CSc2nc(=O)[nH]c3c2CCCC3)cc1
